Assay results: paper PMC4336329 (PLoS ONE, 2015)
Out of some 310,000 compounds screened, about 14,000 (4.5%) showed an effect of 50% or more. Effects have a minus sign here. This is one part of the list.

The molecules below were run against human ether-à-go-go-related gene (hERG) potassium channel (human, UniProt Q12809) (assay: primary screen, population patch clamp on CHO cells stably expressing hERG).
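Also: peak tail current of the secondary pulse compared with the same well before compound.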

human ether-à-go-go-related gene (hERG) potassium channel, sequence (Q12809 whole entry, looked up): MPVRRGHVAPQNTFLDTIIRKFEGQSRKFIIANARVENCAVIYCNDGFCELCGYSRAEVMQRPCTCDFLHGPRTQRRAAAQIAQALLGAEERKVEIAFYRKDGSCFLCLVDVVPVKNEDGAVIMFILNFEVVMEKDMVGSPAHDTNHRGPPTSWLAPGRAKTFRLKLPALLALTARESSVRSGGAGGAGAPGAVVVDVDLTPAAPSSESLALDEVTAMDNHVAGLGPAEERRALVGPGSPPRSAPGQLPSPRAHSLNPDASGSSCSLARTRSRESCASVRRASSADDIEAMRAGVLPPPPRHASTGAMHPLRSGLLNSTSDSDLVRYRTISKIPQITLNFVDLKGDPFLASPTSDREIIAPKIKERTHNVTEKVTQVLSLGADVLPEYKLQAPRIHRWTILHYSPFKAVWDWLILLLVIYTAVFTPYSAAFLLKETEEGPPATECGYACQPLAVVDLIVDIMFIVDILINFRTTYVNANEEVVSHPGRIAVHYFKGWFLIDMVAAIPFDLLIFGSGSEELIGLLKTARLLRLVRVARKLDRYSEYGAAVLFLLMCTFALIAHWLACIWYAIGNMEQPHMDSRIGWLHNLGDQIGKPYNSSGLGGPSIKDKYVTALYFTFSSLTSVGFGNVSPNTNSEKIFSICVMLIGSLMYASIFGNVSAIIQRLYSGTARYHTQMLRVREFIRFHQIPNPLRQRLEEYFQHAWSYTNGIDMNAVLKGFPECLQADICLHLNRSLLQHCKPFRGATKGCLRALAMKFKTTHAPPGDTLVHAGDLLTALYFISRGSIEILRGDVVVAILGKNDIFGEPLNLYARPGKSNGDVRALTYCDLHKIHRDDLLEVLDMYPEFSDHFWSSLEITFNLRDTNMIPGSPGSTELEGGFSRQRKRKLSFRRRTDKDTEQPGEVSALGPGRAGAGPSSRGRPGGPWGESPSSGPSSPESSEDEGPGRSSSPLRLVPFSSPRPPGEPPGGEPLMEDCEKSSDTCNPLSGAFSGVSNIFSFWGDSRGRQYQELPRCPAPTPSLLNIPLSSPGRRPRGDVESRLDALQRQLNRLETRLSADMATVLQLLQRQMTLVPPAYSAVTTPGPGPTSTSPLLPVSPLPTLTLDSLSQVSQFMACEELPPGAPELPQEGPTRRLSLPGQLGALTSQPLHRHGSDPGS

| SMILES | hERG current change (%, negative = inhibition) at 10uM [%] |
| --- | --- |
| O=C(Nc1cccnc1)/C(N=Nc1ccc(Cl)c(C(F)(F)F)c1)=C(\O)c1ccccc1 | 29.3 |
| CCOC(=O)N1CCN(C(=O)CSc2ccc(-c3ccc(OC)cc3)nn2)CC1 | -14.7 |
| O=C(NCCO)c1nsnc1NCCCl | -17.7 |
| COc1cc(OC)c(C(=O)NCC2CCCO2)cc1OC (stereo not shown) | 19.3 |
| O=C1NCC(CN(c2ccccc2)c2ccccc2)O1 (stereo not shown) | -16.4 |
| CCCCNC(=O)COC(=O)c1ccc(SC)cc1OC | 16.2 |
| Cc1cccc(C)c1NC(=S)NCCCN1CCCC1=O | 2.28 |
| CSc1ccccc1C(=O)NCc1ccc(S(N)(=O)=O)cc1 | 5.7 |
| O=C(Nc1nc2ccc(F)cc2s1)c1cccc(S(=O)(=O)N2CCc3ccccc32)c1 | 3.9 |
| Cc1ccc(N(CC(=O)NC2CCCCC2)S(=O)(=O)c2cccs2)cc1 | 5.9 |
| O=Cc1ccc(OC2OCCOC2Oc2ccc(C=O)cc2)cc1 (stereo not shown) | -45.2 |
| CCc1nonc1NC(=O)COc1ccc(Cl)c(C)c1 | 8.59 |
| O=C1CCCN1CCNC(=S)Nc1ccccc1 | -5.35 |
| COc1ccccc1OCC(=O)N/N=C1\CCCCc2ccccc21 | -18.1 |
| CCc1ccc(NC(=O)C2CCN(S(=O)(=O)c3ccc4c(c3)N(C(C)=O)CCO4)CC2)cc1 | -7.52 |
| CC(C)(C)NC(=O)CN(Cc1cccs1)C(=O)CCN1CCc2ccccc21 | -18.9 |
| COc1cccc(C(=O)Nc2ccc(N3CCN(C(=O)c4cccs4)CC3)cc2)c1 | -19.7 |
| O=C(/C=C/c1ccc(Cl)cc1Cl)Nc1ccc(CN2CCOCC2)cc1 | -17.8 |
| CCOCCc1nnc(NC(=O)Cc2c(F)cccc2Cl)s1 | -1.8 |
| COc1ccc(CN2CCCC(C(=O)N3CCCC3)C2)c(OC)c1.O=C(O)C(=O)O (stereo not shown) | -9.41 |
| Cc1cc(NS(=O)(=O)c2ccc(NC(=O)C3CCCCC3)cc2)no1 | 20.8 |
| COc1cccc(C(=O)N/N=C(\C)CC(=O)Nc2ccc(N(C)C)cc2)c1 | 5.85 |

| SMILES | hERG current change (%, negative = inhibition) at 10uM [%] |
| --- | --- |
| O=C(Nc1ccc2oc(-c3cccc4ccccc34)nc2c1)c1ncn[nH]1 | 2.72 |
| CCOC(=O)C1CCCN(C(=O)c2ccc(C)c([N+](=O)[O-])c2)C1 (stereo not shown) | 12.4 |
| O=C(Nc1cccc(-c2cn3cccnc3n2)c1)c1ccc(Br)o1 | -13.2 |
| COCCCNS(=O)(=O)c1ccc2[nH]c(=O)[nH]c2c1 | 3.04 |
| O=C(COC(=O)c1cccc(NS(=O)(=O)c2ccc(F)c(F)c2)c1)NC(=O)NC1CCCC1 | 16.5 |
| CSc1nc(C)nc2c1c(=O)n(C)c(=O)n2C | -9.42 |
| COc1ccc(CCN2C(=O)c3ccccc3C2(O)c2ncc[nH]2)cc1OC (stereo not shown) | 15.8 |
| Cc1cc(NC(=O)C2CC(c3c(F)cccc3Cl)=NO2)n(-c2ccccc2)n1 (stereo not shown) | -9.57 |
| Cn1c(=O)[nH]c(=O)c2[nH]c(CN3CCN(C(=O)c4ccco4)CC3)nc21 | -13.1 |
| O=C(O)CCC(=O)Nc1ccc(/C=C/C(=O)C2CC2)cc1 | 23.8 |
| O=c1[nH]cc(N(CCO)CCO)c(=O)[nH]1 | 11.5 |
| Cc1c(NC(=O)C(C)OC(=O)c2cccc(S(=O)(=O)N3CCOCC3)c2)c(=O)n(-c2ccccc2)n1C (stereo not shown) | 8.34 |
| C=CCN1C(=O)CSc2ccc(C(=O)N3CCC4(CC3)OCCO4)cc21 | -4.68 |
| Cc1ccc(N2CCN(CC(O)COc3cccc(C)c3)CC2)cc1 (stereo not shown) | -55.1 |
| Cc1cccc[n+]1CCCCCCCCCC[n+]1ccccc1C.[Br-] | 37.8 |
| Nc1c(C(=O)CSc2nnc(-c3ccccc3F)o2)c(=O)[nH]c(=O)n1C1CC1 | 15.7 |
| Cn1c(CCN2CCCCC2)nc2cc(NS(=O)(=O)c3ccc(Cl)cc3)ccc21 | -73.8 |
| OC(CNCc1ccc(Cl)cc1)C(F)(F)F (stereo not shown) | 4.86 |
| Cc1cc(N2CCN(C)CC2)nc2ccc(NC(=O)c3ccc4c(c3)OCO4)cc12 | -62.2 |
| CC(C)NC(=O)NC(=O)COC(=O)/C=C/c1ccccc1[N+](=O)[O-] | 22.4 |
| O=C(c1ccccc1Cl)N(Cc1ccccc1F)N1C(=O)CCCC1=O | 11.1 |
